T1: UNK ZnF1-3 (human, UniProt Q9C0B0 31-174)
T1 sequence: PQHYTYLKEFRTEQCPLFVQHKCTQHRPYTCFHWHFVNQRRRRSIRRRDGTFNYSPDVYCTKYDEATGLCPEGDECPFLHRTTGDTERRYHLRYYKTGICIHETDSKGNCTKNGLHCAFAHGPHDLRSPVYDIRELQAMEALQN

B1: chr2:73747962:73747963:-_ENSMUSG00000018770_ENSMUST00000018914|mus_mus|motif|central (ssRNA)
RNA: GGGAGUUCUACAGUCCGACGAUCAGAGCCCUCUCCAGUCCUAGUCUCUGGCCGAGAUAACACUGAUGCAGAAAUUGGUCGGUAUGCAACUCUGGAUCCAGCUCGGAUCAGAGCGGGGGUGCGGGCGAGCUUGGCGCAGGCGAACAACAGAGGAUUGAGCAUCA
B2: 20066896_20067016_4003_CDS_ENSG00000166833_ENST00000396085|human|control|control (ssRNA)
RNA: GGGAGUUCUACAGUCCGACGAUCGGAAGGCUCCCUCAGUUUGGGCACUGGCAGGCCUGCGGACUUGCUGCUAAUGUUGGAAUCUAUGCUGCUGGUGCUAGACCUGUUCCCAGCCCCGUUCCGGCUGUUGGACUUACUGGGCCUCAACAGAGGAUUGAGCAUCA
B3: chr7:141445308:141445309:+_ENSG00000106028_ENST00000265304|hu_hu|FALSE|FALSE (ssRNA)
RNA: GGGAGUUCUACAGUCCGACGAUCUAUGAUUGUUGUUGCUUGUCGCCUCACAUUAUUUUUAUCCAUGUAUUCACCAUAGUCUAUUUUCCCUUCCAAAUAAAUUCGAGACCCCUUUUUCACAUAUUGAUAUGCCACGUCUCUGAGCAACAGAGGAUUGAGCAUCA
B4: chr7:3571038:3571039:+_ENSMUSG00000035674_ENSMUST00000076657|mus_mus|FALSE|FALSE (ssRNA)
RNA: GGGAGUUCUACAGUCCGACGAUCUGGGUAGUUGUAGGGUGUGGCCUUGUUGAUCAUGCUAGCAUACUUGGUGUAGGGGCUAAUCAUGGGCAUAAUUAUAGCGAGGCCCCAGACAGAGAAGGACACCACCAGCACCGGCUCCUUCAACAGAGGAUUGAGCAUCA
B5: 82448380_82448500_4964_3pUTR_ENSMUSG00000028403_ENSMUST00000030110|mouse|control|control (ssRNA)
RNA: GGGAGUUCUACAGUCCGACGAUCAGACAGUCUAGACAGAAAUUAGUAUAGAGCUAAUGAAUAUUAGUGCCAUAUUAAGCCACUGCAAGACAAAUUGUGAUUUUUUUUUCUUUUUUAGCAAUACAUGUAAGAACAUUCAAACUACAACAGAGGAUUGAGCAUCA
B6: chr7:149068622:149068623:-_ENSMUSG00000025139_ENSMUST00000001950|mus_hu|mus_mus_mus_hu_False|58_78 (ssRNA)
RNA: GGGAGUUCUACAGUCCGACGAUCGUGAGGCCUCUGAGUGUGGCUUGUGGUCUGUCCUGUCUGCAGUUUGUUAAUAUCACUAAGUGGACCAUCUAGAACGUUCCAGUCCCGCCUGACACCUUCAUUCCCAAUGGAGAAGAAAUCCAACAGAGGAUUGAGCAUCA
B7: chr8:101932826:101932827:-_ENSG00000164924_ENST00000353245|hu_mus|motif|central (ssRNA)
RNA: GGGAGUUCUACAGUCCGACGAUCAAUAUAGAAAUUCAAAUAGAAGUAACAUAAACCUGUCAUAAAUCGUAAACAAAAAAACGGUCUGUGGGACAGCAUGGAUGACAAAUGGUCUACUGUGUAAAUUUUAGAAUGAGGCAGACACAACAGAGGAUUGAGCAUCA
B8: chr3:9412954:9412955:+_ENSG00000134077_ENST00000452837|hu_mus|hu_hu_hu_mus_False|1_8 (ssRNA)
RNA: GGGAGUUCUACAGUCCGACGAUCGGUUGAUAUCUCUUCUUUGAUGGCUGGAUUUUCAUAAUAGUCCAAGAUAUGUGAAUCUGAAGUGCUGCUGGCAUGCUUUUUCUUACCAUCUUUCUCAUCUGCUUUGACUUCUUGUCCAUUCAACAGAGGAUUGAGCAUCA
B9: chr10:93459826:93459827:-_ENSMUSG00000036099_ENSMUST00000119818|mus_mus|motif|central (ssRNA)
RNA: GGGAGUUCUACAGUCCGACGAUCUCCCCACACCAGCCAGGAGGACACAAUCCAGCACGUGGGAAACAUGAUGAGCAAACGGAUGAAGGCAAACAGCAGCGAGACAUCCCAAGUGUUCGGGGUUGCCAGGGAGCAGAGCGUUGGCAACAGAGGAUUGAGCAUCA
B10: 63631413_63632246_5513_CDS_ENSMUSG00000028364_ENSMUST00000107372|mouse|control|control (ssRNA)
RNA: GGGAGUUCUACAGUCCGACGAUCCCAGGUAAGGAGGGCAGUUUCUGACUGAACCUCUGUAGCUGUAAAUUCUCUUGGGGAAUCGAGGUCUGUGGUAAACUUGGUGGCGAUGGUAGAGCUCUUCUGCUGUCCUUUCUCUGCAAACAACAGAGGAUUGAGCAUCA
B11: 119461075_119461195_1244_3pUTR_ENSG00000119401_ENST00000373983|human|control|control (ssRNA)
RNA: GGGAGUUCUACAGUCCGACGAUCUACCACGGUCAGCGACUAGUACUUCACCUUGACUGGUCACGUAGAGACUGACUGGAAGAUUGAACAUUCCUGGAGUGCUGCCUUUGGCCCCCAUCUUCUUGAGAAAGAGGCACUGCUGGACAACAGAGGAUUGAGCAUCA
B12: 123611402_123617215_529_ncRNA_ENSMUSG00000025245_ENSMUST00000165754|mouse|control|control (ssRNA)
RNA: GGGAGUUCUACAGUCCGACGAUCUGGGCCUUUAGCAAAUCCUGUUGGUUUUCUUGAUCGAGCUGUAAAUCUUGAAGUACUCUUUCCAAUUUUGACUUCUCAUCCAGAGCAUUUACAGCCUGUAUUUCAAUGGUCUUCAGCCUUCAACAGAGGAUUGAGCAUCA
B13: chr5:146773406:146773407:-_ENSG00000113657_ENST00000343218|hu_hu|FALSE|FALSE (ssRNA)
RNA: GGGAGUUCUACAGUCCGACGAUCGGCCUGUCUGAUUGCAUGCAUGUAAAUGGGGGGAGGGGAGUCAAACAAAUCAAGGCUAUGCAUAAACAGAAAACAAAGCAAUAUUCGUAAAGCUAGGCAAGCGAGCGUAACAUUGGAGAACAACAGAGGAUUGAGCAUCA
B14: chr4:140265382:140265383:+_ENSG00000164134_ENST00000296543|hu_mus|FALSE|FALSE (ssRNA)
RNA: GGGAGUUCUACAGUCCGACGAUCUUCUCUAUAAAGACCUGCUUCCCGAAGAACUUGAUUCUGAUAUAAGAGGAGUUCACUAUAUUCAUAAUCCACUUUAUCAGGAGAUGUCUGCUGUGUUUUCCUAAACUCUUCUAAAAUUUUCAACAGAGGAUUGAGCAUCA
B15: 171526625_171526745_1071_3pUTR_ENSG00000117523_ENST00000495585|human|control|control (ssRNA)
RNA: GGGAGUUCUACAGUCCGACGAUCAGGUUAUAGCUGCAGCUGAAGUAGAGGCUGGAACUGAAGCUGAGACUGAGGCUGAGGCUGAAACUGGAGCUAAGGGUGAGGCUGGAACUGGAGCUGAGGUUGAGGCCAGAACUGGAGCUACAACAGAGGAUUGAGCAUCA
B16: 151550765_151552471_1592_3pUTR_ENSMUSG00000034021_ENSMUST00000016569|mouse|control|control (ssRNA)
RNA: GGGAGUUCUACAGUCCGACGAUCCGUUCCGUCGUUUCCAAAUUGUGAGGGACCAUGUACUGAGCAAAGAUCCGCUCAACAAGUAGCCGGUCGUCGAUGCUGUUCUGAUAGUAUAUAUGCAGCAGCUUGUCCUUGACCCAGGAUCAACAGAGGAUUGAGCAUCA
B17: chr22:19452774:19452775:-_ENSG00000070010_ENST00000399523|hu_hu|hu_hu_hu_mus_False|18_48 (ssRNA)
RNA: GGGAGUUCUACAGUCCGACGAUCCUUCUCAUUGUAGUUGAUAGCAAUCACAUCUCCAGUCGUCAGACAGGCGAAGUUUCUCAAUGCGUUUUCUAAUACCGCUUUAGGGUUGGUAAUGUCCAGGAAGUCUGGGCUCUGAGGCUGCAACAGAGGAUUGAGCAUCA
B18: chr5:124080617:124080618:-_ENSMUSG00000049550_ENSMUST00000063905|mus_mus|FALSE|FALSE (ssRNA)
RNA: GGGAGUUCUACAGUCCGACGAUCCUCCAUCUCUUUAGCAUGAGCAGACCGCUCAGAGUCCUGUUUACUCUGUAAACUUUCUAUUUCGUGCUGGUAAUCUAGUCUCAGUCUCUCUAUCUGUGUCUUUAACUCAGCAAAUUCAGCCAACAGAGGAUUGAGCAUCA
B19: chr1:66480114:66480115:+_ENSMUSG00000015222_ENSMUST00000024639|mus_hu|mus_mus_mus_hu_True|48_48 (ssRNA)
RNA: GGGAGUUCUACAGUCCGACGAUCUGGCCUGUGGCGGAUGUUCUUCAGAGAGCCACAUUUGGAUGUCACAUGGCUUAGGUCUAUUUUCUUAGUAACAAUUUGUACCUGCCCCCCUUUAGGCUGGUAUUUGAUGUUGUCUGUUGACAACAGAGGAUUGAGCAUCA
B20: 172138790_172141191_752_CDS_ENSMUSG00000026667_ENSMUST00000150821|mouse|control|control (ssRNA)
RNA: GGGAGUUCUACAGUCCGACGAUCGAUAAGGUCUCUGAGGUGAUAGGCUGGAAUUGCGGCAUUCACCACUGCUUUACUGGCAAAUAUAUGAUCAAUAAUAGCAGAACUGUUUGCCUUCCAUUCCUGAGAUCUGACUGUAUGUUUCAACAGAGGAUUGAGCAUCA
B21: chr4:99339852:99339853:+_ENSG00000138698_ENST00000453712|hu_mus|FALSE|FALSE (ssRNA)
RNA: GGGAGUUCUACAGUCCGACGAUCGGCGUGCUGCACCGUCACGUUCCCGUCUUCUACGUGUCUGUCCAGCAAAUCCAUGAGUUUUUCUACAAUCCCAUUGUCUACCAUAUGAAUACAAUUUCCAUCGUUCCUGGCAAAAUUUGCCAACAGAGGAUUGAGCAUCA
B22: chr5:71490152:71490153:+_ENSG00000131711_ENST00000296755|hu_mus|FALSE|FALSE (ssRNA)
RNA: GGGAGUUCUACAGUCCGACGAUCUACGUUGAGAAACACAACCCCCAGGUCAGGGGAGAUGAGGUUUUUCAUCCAGUCACUGUUGCUGGUGGACCCCUGGGACCGCUCCUCUUCCAGCUCUGCAAUCUUGCGCUGCAGCAUGCUCAACAGAGGAUUGAGCAUCA

The list shows a part of the results.

The test deals with T1, UNK ZnF1-3. Description: nsRBNS (natural sequence RNA bind-n-seq); RBNS binding buffer (assumed for nsRBNS): 25 mM Tris pH 7.5, 150 mM KCl, 3 mM MgCl2, 0.01% Triton X-100, 500 ug/ml BSA, 20 U/ml SUPERase-In, 4 C; UNK is unkempt and MSI1 is Musashi-1; names of the RNAs are library labels; protein concentration not given here; high values mean tight binding.
In the case of B1, the binding signal is 1.21 enrichment R.
In the case of B2, the binding signal was determined as 0.782 enrichment R.
To B3 belongs 0.64 enrichment R; to B4, 1.01 enrichment R; to B5, 0.718 enrichment R.
Consider B6, for which the binding signal came to 0.922 enrichment R.
To B7 belongs 1.94 enrichment R; to B8, 0.279 enrichment R; to B9, 2.05 enrichment R.
To B10 belongs 0.781 enrichment R; to B11, 0.768 enrichment R; to B12, 0.435 enrichment R.
The value for B13 was 2.29 enrichment R; that for B14 was 1.5 enrichment R.
B15 registered a binding signal of 2.07 enrichment R.
To B16 belongs 0.852 enrichment R; to B17, 0.717 enrichment R; to B18, 0.821 enrichment R.
To B19 belongs 0.506 enrichment R; to B20, 0.552 enrichment R; to B21, 0.638 enrichment R.
To B22 belongs 0.926 enrichment R.

Values taken from PMC12136788.
